Assay results from PubChem BioAssay AID588855 (National Center for Advancing Translational Sciences (NCATS), 2011).
Among all 410,000 compounds or so, about 5,000 (1.2%) were called active. The inconclusive results got no clear call from the source; some entries with a clear call stand among them for comparison. The call rests on the fitted dose curve; in most records, active means well fitted inhibition curve with a large enough effect; inconclusive means small, poorly fitted or top-dose-only effect; inactive means no such curve, though single readings can be large or run the other way. Potencies beside an inconclusive call are fits to weak or partial responses and may not hold up.

Assay: qHTS for Inhibitors of TGF-b; further: nearly all actives have a fitted effect of over 65% in size
Details: HepG2 CAGA-GFP TGF-b/SMAD3 reporter, GFP fluorescence, 18 h, TGF-beta stimulated, 500 pg/mL final; series mostly up to 46.1 µM
Procedure, shortened: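 Inhibition of TGF-beta-driven CAGA-GFP reporter expression in HEPG2 cells is measured by cellular GFP fluorescence after 18 h stimulation with 500 pg/mL recombinant TGF-beta in 1% FBS medium at 37 degrees C.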
Potency means the concentration at half of the fitted maximal effect; tags describe the fitted curve by direction and shape.

With `O=C(N/N=C/c1ccccn1)c1cc([N+](=O)[O-])cc([N+](=O)[O-])c1` as the compound, how does the Potency read?
Its Potency is active: 4.47 µM.

With `COc1cccc(/C=N/n2c(C)nc3ccccc3c2=O)c1O` as the compound, how does the Potency read?
Its Potency is “inactive”.

For `N#Cc1ccc(C#Cc2ccc3oc4ccccc4c(=O)c3c2)cc1`, which Potency is on record?
The Potency was “inactive”.

Which Potency does the source give for `COc1ccccc1N(C)S(=O)(=O)c1ccc(C(=O)Nc2cccc(S(=O)(=O)N3CCOCC3)c2)cc1` here?
Its Potency is “inactive”.

With `Cc1ccc2nc(Nc3ccccc3)cc(C)c2c1` as the compound, how does the Potency read?
Its Potency is inconclusive: 35.5 µM [inhibitor, single point].

With `CCCc1nc(SCC(=O)N2CCN(c3ccccc3)CC2)c2c(=O)n(C)c(=O)n(C)c2n1` as the compound, how does the Potency read?
Its Potency is “inactive”.

Which Potency does the source give for `O=C(NCc1cc(C(F)(F)F)cc(C(F)(F)F)c1)C1CC(c2ccccc2C(F)(F)F)=NO1` (stereo not given) here?
Its Potency is inconclusive: 14.1 µM [inhibitor, single point].

Which Potency does the source give for `COc1cccc(NC(=O)N(Cc2cn(C)c3ccccc23)C2CCCCC2)c1` here?
Its Potency is inconclusive: 35.5 µM [inhibitor, single point].

With `COc1ccc(OC)c(NC(=O)c2c(NCc3ccc(C)o3)sc3c2CCCCC3)c1` as the compound, how does the Potency read?
Its Potency is inconclusive: 8.91 µM [inhibitor, partial curve].

For `Cc1cc(Nc2ccccc2Cl)n2nc(-c3ccco3)nc2n1`, which Potency is on record?
The Potency was “inactive”.

For `COc1cc(C(=O)OCC(=O)NC2CCCCC2)cc2c1OCCO2`, which Potency is on record?
The Potency was “inactive”.

Which Potency does the source give for `Cc1ccc(NCc2ccccc2-c2nnc(-c3ccccc3Cl)o2)cc1Cl` here?
The Potency was “inactive”.

Which Potency does the source give for `CCOC(=O)C1=CCN(S(=O)(=O)c2ccc(C)cc2)C1c1ccc(CC)cc1` (stereo not given) here?
The Potency was inconclusive: 10 µM [inhibitor, partial curve, poor fit].

For `NCCOc1ccc(C2CCCCC2)cc1`, which Potency is on record?
Its Potency is inconclusive: 35.5 µM [inhibitor, single point].

With `COc1cccc(NC(=O)C2CC(=O)N(C)C(=Nc3cccc(F)c3)S2)c1` (stereo not given) as the compound, how does the Potency read?
The Potency was inconclusive: 11.2 µM [inhibitor, partial curve, poor fit].

Which Potency does the source give for `C[C@@]12C(=O)N(c3cccc(F)c3)C(=O)N1[C@@H]1c3ccccc3OC[C@@H]1[C@H]2c1ccccc1` here?
Its Potency is “inactive”.

With `CCCCC[C@@H]1[C@H]2[C@H]3C(=O)N(c4ccccc4)C(=O)[C@H]3CC(=O)[C@H]2[C@H](c2ccccc2)N1S(=O)(=O)c1ccc(C)cc1` as the compound, how does the Potency read?
The Potency was inconclusive: 15.8 µM [inhibitor, single point].

With `Cc1ccc(N=Nc2c(N)nn3c(N)c(C#N)c(C)nc23)cc1` as the compound, how does the Potency read?
Its Potency is inconclusive: 2 µM [inhibitor, partial curve, poor fit].

Which Potency does the source give for `O=C(N/N=C1\CCCc2c1[nH]c1ccc(Cl)cc21)c1ccncc1` here?
The Potency was “inactive”.

Which Potency does the source give for `COc1ccc2nc(C)cc(N/N=C/c3ccccc3)c2c1` here?
The Potency was inconclusive: 35.5 µM [inhibitor, single point].
